PubChem BioAssay AID2546 (National Center for Advancing Translational Sciences (NCATS), 2010)
Out of some 310,000 compounds screened, about 11,000 (3.5%) were called active. The shares of active, inactive and inconclusive entries below differ from those in the screen. Calls follow the shape of the dose curve; as a rule, active = well fitted inhibition curve with a large enough effect; inconclusive = small, poorly fitted or top-dose-only effect, or effect the other way; inactive = flat fitted curve, though single readings scatter. No potency is given beside an inconclusive call; the fits are too rough.

Test: VP16 counterscreen qHTS for inhibitors of ROR gamma transcriptional activity;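 also: Gal4-VP16 expression switched on by copper sulfate through the metallothionein promoter; nearly all actives have a fitted effect of over 50% in size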
Details: Drosophila S2 Gal4-VP16 UAS-luciferase, luminescence, 20 h; series mostly up to 53.6 µM
Potency is read from the fitted curve at half-maximal effect; tags tell the direction and shape of the fitted curve.

Q: For `COC(=O)C1(Cc2cc(-c3ccc(Cl)cc3)no2)CCN(C(=O)OC(C)(C)C)CC1`, which Potency is on record?
A: inconclusive [inhibitor, single point]

Q: For `COCc1cc(C)nc(SCC(=O)Nc2ccc(N3CCOCC3)cc2)c1C#N`, which Potency is on record?
A: inactive

Q: Which Potency does the source give for `CCn1c(SCc2ccccc2Cl)nc2nc3c(cc2c1=O)CCCC3` here?
A: inconclusive [inhibitor, single point]

Q: With `Cc1ccc(O)c(Sc2cc(C)ccc2O)c1` as the molecule, how does the Potency read?
A: active: 12.6 µM

Q: With `NS(=O)(=O)c1ccc(N=Nc2ccc(O)c3ncccc23)cc1` as the molecule, how does the Potency read?
A: inconclusive [inhibitor, partial curve, poor fit]

Q: With `O=c1c(-c2cccs2)nc2cncnc2n1Cc1ccc(F)cc1` as the molecule, how does the Potency read?
A: inactive

Q: With `Cc1nc2ccccc2nc1N1CCCCC1` as the molecule, how does the Potency read?
A: inactive

Q: With `COc1ccccc1N1CCN(C(=O)C2c3ccccc3Oc3ccccc32)CC1` as the molecule, how does the Potency read?
A: inconclusive [inhibitor, single point]

Q: For `CCOc1ccc2c(c1)C(C)=CC(C)(C)N2C(=O)Nc1ccccc1F`, which Potency is on record?
A: inactive

Q: With `O=C(/C=C/c1ccccc1)NCCC1=CCCCC1` as the molecule, how does the Potency read?
A: inconclusive [activator, full curve]

Q: For `COC(=O)c1cc2ccsc2n1Cc1nc(-c2cccc(Cl)c2)oc1C`, which Potency is on record?
A: inconclusive [inhibitor, single point]

Q: For `Cc1cc(C)nc(N/N=C/C2=C(N3CCOCC3)C(=C\c3ccc(Cl)cc3)/CC2)n1`, which Potency is on record?
A: inconclusive [inhibitor, single point]

Q: Which Potency does the source give for `c1c2c(cc3sc(N4CCCCC4)nc13)OCCO2` here?
A: active: 1.26 µM

Q: For `COc1ccc(CNC(=S)N/N=C/c2ccc(O)c(OC)c2)cc1`, which Potency is on record?
A: active: 15.8 µM

Q: With `CC(C)(C)NC(=O)CN(Cc1cccs1)C(=O)CCN1CCc2ccccc21` as the molecule, how does the Potency read?
A: inactive

Q: For `CCc1ccc(NC(=S)Nc2ccc(S(=O)(=O)Nc3ncccn3)cc2)cc1`, which Potency is on record?
A: inconclusive [inhibitor, single point]

Q: For `COC(=O)c1ccc(NC(=S)NC2CC(C)(C)NC(C)(C)C2)cc1`, which Potency is on record?
A: inconclusive [activator, single point]

Q: Which Potency does the source give for `Cc1ccccc1N1CCN(S(=O)(=O)CC23CCC(CC2NC(=O)C(N)CCS(C)(=O)=O)C3(C)C)CC1` (stereo unspecified) here?
A: inactive

Q: With `O=C(CSc1nccn1-c1ccc(Cl)cc1)N1CCCc2ccccc21` as the molecule, how does the Potency read?
A: inconclusive [inhibitor, full curve, poor fit]

Q: For `CCOC(=O)c1sc2nc(CC(C)C)c3c(c2c1N)CCC3`, which Potency is on record?
A: inconclusive [activator, single point]

Q: Which Potency does the source give for `Cc1ccc(C)c(/C=C2\N=C(c3ccccc3F)OC2=O)c1` here?
A: inactive

Q: With `O=S(=O)(c1cccc(F)c1)N1CCN(Cc2ccc3c(c2)OCO3)CC1` as the molecule, how does the Potency read?
A: inactive

Q: With `COc1ccccc1/C=C/C(=O)NC(=S)Nc1ccccn1` as the molecule, how does the Potency read?
A: active: 5.62 µM

Q: For `Clc1ccc(OCCCNCc2ccccc2)c2ccccc12`, which Potency is on record?
A: inactive

Q: With `CCOC(=O)c1cc(NC(=O)N(CC)C2CCCCC2)c(C)nc1C` as the molecule, how does the Potency read?
A: inconclusive [inhibitor, single point]

Q: Which Potency does the source give for `CCN(CC)C(=O)c1cccc(-c2ccc(OC)cc2)c1` here?
A: inactive

Q: Which Potency does the source give for `COC(=O)c1ccccc1NC(=O)CN1CCC(n2nnc3cc(C(F)(F)F)ccc32)CC1` here?
A: inactive

Q: For `Cn1c(=S)[nH]c2scc(-c3cccs3)c2c1=O`, which Potency is on record?
A: active: 5.01 µM

Q: For `COc1cc(C(CC(=O)N2CCOCC2)c2c(OC)cc(OC)c3ccc(=O)oc23)cc(OC)c1OC` (stereo unspecified), which Potency is on record?
A: inactive

Q: For `O=C(Nc1nc2ccccc2[nH]1)c1ccc(Br)o1`, which Potency is on record?
A: inconclusive [inhibitor, single point]

Q: With `O=C(c1ccco1)N1CCN(c2nc(C3CC3)nc3c2nnn3Cc2ccccc2Cl)CC1` as the molecule, how does the Potency read?
A: inconclusive [inhibitor, single point]

Q: For `Cc1ccc(-c2nc3cc(N)ccc3o2)cc1`, which Potency is on record?
A: inconclusive [activator, single point]

Q: For `CCOC(=O)c1sc(=NC(=O)c2ccco2)n(C)c1C`, which Potency is on record?
A: inactive

Q: With `COc1ccc(S(=O)(=O)NCCc2nnc3ccc(SCc4cccnc4)nn23)cc1` as the molecule, how does the Potency read?
A: inactive

Q: Which Potency does the source give for `CN1CCN(c2ncc3nc(-c4cccs4)c(=O)n(C[C@H]4CCCO4)c3n2)CC1` here?
A: inactive

Q: For `Cc1cc(-c2ccc(N=Nc3ccc4c(S(=O)(=O)O)cc(S(=O)(=O)O)c(N)c4c3O)c(C)c2)ccc1N=Nc1ccc2c(S(=O)(=O)O)cc(S(=O)(=O)O)c(N)c2c1O`, which Potency is on record?
A: inconclusive [inhibitor, partial curve]

Q: For `C(=C\c1ccccc1)/C=N/N1CCN(Cc2ccccc2)CC1`, which Potency is on record?
A: inconclusive [activator, single point]

Q: With `CCn1c(CCC(=O)Nc2nc3c(s2)CCCC3)nc2cc(S(=O)(=O)N(C)C)ccc21` as the molecule, how does the Potency read?
A: inconclusive [inhibitor, single point]

Q: For `CCCN1C(=O)C(O)(c2c(C)[nH]c3ccccc23)c2ccccc21` (stereo unspecified), which Potency is on record?
A: inactive

Q: For `O=C(NCCCc1ccc(F)cc1)C1CCC(=O)N(CCCN2CCCC2=O)C1` (stereo unspecified), which Potency is on record?
A: inactive

Q: Which Potency does the source give for `CCOC(=O)c1[nH]c2ccc(OC)cc2c1C` here?
A: inconclusive [inhibitor, single point]

Q: For `CC(=O)N1c2ccc(S(=O)(=O)N3CCC(C(=O)N4CCN(c5cccc(C(F)(F)F)c5)CC4)CC3)cc2CC1C` (stereo unspecified), which Potency is on record?
A: inconclusive [inhibitor, single point]

Q: With `COc1ccc(-c2cn(CCCOCc3ccccc3)nn2)cc1` as the molecule, how does the Potency read?
A: inactive

Q: For `Cc1ccc(-n2nnnc2SC(C(=O)c2c[nH]c3ccccc23)c2ccccc2)cc1` (stereo unspecified), which Potency is on record?
A: inconclusive [inhibitor, single point]

Q: For `CCOC(=O)C1=C(c2ccccc2)OC(N)=C(C#N)C1c1ccc(Cl)s1` (stereo unspecified), which Potency is on record?
A: inconclusive [inhibitor, single point]

Q: With `COc1ccc(NC(=O)CSc2nc3n[nH]c(C)c3c(=N)n2-c2ccc(Cl)c(C)c2)cc1OC` as the molecule, how does the Potency read?
A: inconclusive [inhibitor, single point]

Q: With `COCCOC(=O)C1=C(C)NC(SCC(=O)NC(C)(C)C)=C(C#N)C1c1ccco1` (stereo unspecified) as the molecule, how does the Potency read?
A: inactive

Q: For `COCCCNC(=O)C(=O)NCCCOC(C)C`, which Potency is on record?
A: inconclusive [activator, single point]

Q: For `Nc1nc(Cl)nc2c1ncn2[C@@H]1O[C@H](CO)[C@H](O)C1F` (stereo partly specified), which Potency is on record?
A: inconclusive [inhibitor, single point]

Q: With `COc1ccc(Cl)cc1NC(=S)Nc1ccccc1C` as the molecule, how does the Potency read?
A: inconclusive [inhibitor, single point]

Q: For `COc1ccc(CNC(=O)C[C@H]2C(=O)N(c3ccccc3)C[C@@H]2Cc2ccccc2)cc1`, which Potency is on record?
A: inactive

Q: For `CCOC(=O)N1CCN(C(=O)CNC(=O)c2nn(-c3ccc(OC)cc3OC)c(=O)c3ccccc23)CC1`, which Potency is on record?
A: inconclusive [inhibitor, partial curve]

Q: Which Potency does the source give for `O=C1CC(c2ccccc2)=NN1c1ccc([N+](=O)[O-])cc1` here?
A: inconclusive [inhibitor, single point]

Q: With `COc1ccc2c(c1OC)C(Cc1ccccc1)N1CCc3cc4c(cc3C1=C2)OCO4` (stereo unspecified) as the molecule, how does the Potency read?
A: active: 14.1 µM

Q: For `O=C(C1CCC(=O)N1C1CCCCC1)N1CCN(c2ccc(F)cc2)CC1` (stereo unspecified), which Potency is on record?
A: inactive

Q: For `CCN(CC)c1ccc(NC(=S)Nc2ccc(F)cc2)cc1`, which Potency is on record?
A: inconclusive [activator, partial curve]

Q: Which Potency does the source give for `Clc1ccc(Nc2ncnc3ccc(Br)cc23)cc1` here?
A: inactive

Q: With `COC(=O)C1=NNC(C(=O)c2ccco2)C1c1ccccc1` (stereo unspecified) as the molecule, how does the Potency read?
A: inactive

Q: For `COc1ccc(/C=C2\SC(=S)N(CCCC(=O)Nc3ccc(O)cc3)C2=O)cc1`, which Potency is on record?
A: active: 1 µM

Q: With `CCOc1ccc(-c2csc(NC(=O)CSC3=NC(=O)CN3C(C)=O)n2)c2ccccc12` as the molecule, how does the Potency read?
A: active: 7.94 µM

Q: Which Potency does the source give for `Cc1cc(C=C2C(=O)c3ccccc3C2=O)c(C)n1-c1ccccc1` here?
A: active: 15.8 µM

Q: Which Potency does the source give for `Cc1cc2nc(-c3ccc[nH]c3=O)n(Cc3ccc(F)cc3)c2cc1C` here?
A: inactive

Q: Which Potency does the source give for `CCOc1cc(/C=N\NC(=O)c2ccc(NC(=O)C(C)(C)C)cc2)ccc1OC(=O)c1ccc(C)cc1` here?
A: inactive

Q: For `N=C1C(c2nc3ccccc3[nH]2)=C(O)CN1c1ccccc1`, which Potency is on record?
A: inconclusive [inhibitor, partial curve, poor fit]

Q: For `Cc1ccc(-n2c(C)cc(/C=C(\C#N)C(=O)NCC3CCCO3)c2C)cc1` (stereo unspecified), which Potency is on record?
A: inconclusive [inhibitor, single point]

Q: For `c1ccc(-c2nc(NCc3ccco3)c3ccccc3n2)nc1`, which Potency is on record?
A: active: 2.82 µM

Q: With `COCCNC(=O)/C(C#N)=C/c1c(N2CCN(c3ccccc3)CC2)nc2ccccn2c1=O` as the molecule, how does the Potency read?
A: inactive

Q: For `Cc1ccccc1N(C(=O)c1snc(C(N)=O)c1N)C(C(=O)NCC1CCCO1)c1ccc(N(C)C)cc1` (stereo unspecified), which Potency is on record?
A: inactive

Q: Which Potency does the source give for `FC(F)(F)c1ccccc1-c1ccc2ncnc(NC3CC3)c2c1` here?
A: inconclusive [inhibitor, single point]

Q: With `COc1ccc(CSCCNC(=S)Nc2ccccc2)cc1Cl` as the molecule, how does the Potency read?
A: inconclusive [inhibitor, single point]

Q: With `O=C(NCCCN1CCOCC1)c1ccccc1N1C(=O)[C@@H]2Cc3c([nH]c4ccccc34)C(c3cccc(Cl)c3)N2C1=O` (stereo partly specified) as the molecule, how does the Potency read?
A: inactive

Q: For `COC(=O)c1ccc(-n2nnnc2SCC(=O)Nc2ccccc2C(=O)OC)cc1`, which Potency is on record?
A: inconclusive [inhibitor, single point]

Q: With `CCOc1ncccc1C(=O)Nc1c(C)n(C)n(-c2ccccc2)c1=O` as the molecule, how does the Potency read?
A: inactive

Q: Which Potency does the source give for `COc1ccc(CNC(=O)Cc2nn(C)c(=O)c3ccccc23)cc1` here?
A: active: 8.91 µM

Q: Which Potency does the source give for `CC(C)N(Cc1ccccc1)C(=O)CC(=O)N(Cc1ccccc1)C(C)C` here?
A: inactive

Q: With `CN1c2cccc3cccc(c23)N(C)C1c1cccs1` as the molecule, how does the Potency read?
A: inactive
